Reference: article PMC12511354
No constants are given. Whether binding was seen depends on the method and setting. In cells and extracts the contact can be indirect. Some entries that bind do so weakly or less than the wild type.

By UniProt entry, the sequences of proteins in these tests, tags left out.
UniProt Q8BSQ9: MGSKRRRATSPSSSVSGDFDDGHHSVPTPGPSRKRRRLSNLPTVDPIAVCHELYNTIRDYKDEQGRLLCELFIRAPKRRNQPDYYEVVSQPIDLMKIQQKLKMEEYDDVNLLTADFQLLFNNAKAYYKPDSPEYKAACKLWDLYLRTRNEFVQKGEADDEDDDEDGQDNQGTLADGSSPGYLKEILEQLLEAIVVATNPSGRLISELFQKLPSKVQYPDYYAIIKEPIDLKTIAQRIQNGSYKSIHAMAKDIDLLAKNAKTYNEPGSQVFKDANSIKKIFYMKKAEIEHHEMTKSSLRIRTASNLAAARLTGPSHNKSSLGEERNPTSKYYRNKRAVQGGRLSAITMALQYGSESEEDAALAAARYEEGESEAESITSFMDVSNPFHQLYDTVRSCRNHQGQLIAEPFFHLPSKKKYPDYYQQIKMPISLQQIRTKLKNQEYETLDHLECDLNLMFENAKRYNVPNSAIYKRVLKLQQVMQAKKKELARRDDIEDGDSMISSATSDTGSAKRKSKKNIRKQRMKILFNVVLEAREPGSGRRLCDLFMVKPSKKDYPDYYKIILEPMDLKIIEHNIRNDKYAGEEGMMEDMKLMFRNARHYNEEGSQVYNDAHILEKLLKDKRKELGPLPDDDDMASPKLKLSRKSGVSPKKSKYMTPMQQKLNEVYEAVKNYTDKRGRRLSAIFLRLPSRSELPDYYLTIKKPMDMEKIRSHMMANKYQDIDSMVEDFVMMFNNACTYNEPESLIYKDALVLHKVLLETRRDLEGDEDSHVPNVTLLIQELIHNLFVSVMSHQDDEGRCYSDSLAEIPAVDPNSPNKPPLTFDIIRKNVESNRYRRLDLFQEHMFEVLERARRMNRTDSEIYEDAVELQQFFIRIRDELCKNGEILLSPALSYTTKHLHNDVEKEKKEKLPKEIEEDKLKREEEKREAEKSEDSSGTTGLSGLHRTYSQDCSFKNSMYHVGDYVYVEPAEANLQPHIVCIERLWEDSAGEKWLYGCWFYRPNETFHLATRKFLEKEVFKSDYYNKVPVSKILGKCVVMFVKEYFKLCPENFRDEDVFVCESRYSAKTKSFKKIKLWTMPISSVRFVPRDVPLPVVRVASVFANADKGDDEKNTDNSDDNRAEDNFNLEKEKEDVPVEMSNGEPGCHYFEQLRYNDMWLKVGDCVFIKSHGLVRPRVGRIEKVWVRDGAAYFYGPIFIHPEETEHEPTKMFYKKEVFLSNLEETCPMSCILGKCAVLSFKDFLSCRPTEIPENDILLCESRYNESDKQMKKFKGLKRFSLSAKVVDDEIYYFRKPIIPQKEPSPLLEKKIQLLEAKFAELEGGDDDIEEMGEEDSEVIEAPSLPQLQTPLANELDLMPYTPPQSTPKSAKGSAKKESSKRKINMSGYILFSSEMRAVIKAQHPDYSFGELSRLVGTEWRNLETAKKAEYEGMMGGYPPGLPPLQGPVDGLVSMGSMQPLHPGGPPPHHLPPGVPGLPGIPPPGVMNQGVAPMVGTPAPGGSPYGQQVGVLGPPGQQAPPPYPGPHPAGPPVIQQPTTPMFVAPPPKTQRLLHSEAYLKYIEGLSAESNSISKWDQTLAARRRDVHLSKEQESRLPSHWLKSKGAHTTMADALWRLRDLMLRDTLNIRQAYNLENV
UniProt Q3TKT4: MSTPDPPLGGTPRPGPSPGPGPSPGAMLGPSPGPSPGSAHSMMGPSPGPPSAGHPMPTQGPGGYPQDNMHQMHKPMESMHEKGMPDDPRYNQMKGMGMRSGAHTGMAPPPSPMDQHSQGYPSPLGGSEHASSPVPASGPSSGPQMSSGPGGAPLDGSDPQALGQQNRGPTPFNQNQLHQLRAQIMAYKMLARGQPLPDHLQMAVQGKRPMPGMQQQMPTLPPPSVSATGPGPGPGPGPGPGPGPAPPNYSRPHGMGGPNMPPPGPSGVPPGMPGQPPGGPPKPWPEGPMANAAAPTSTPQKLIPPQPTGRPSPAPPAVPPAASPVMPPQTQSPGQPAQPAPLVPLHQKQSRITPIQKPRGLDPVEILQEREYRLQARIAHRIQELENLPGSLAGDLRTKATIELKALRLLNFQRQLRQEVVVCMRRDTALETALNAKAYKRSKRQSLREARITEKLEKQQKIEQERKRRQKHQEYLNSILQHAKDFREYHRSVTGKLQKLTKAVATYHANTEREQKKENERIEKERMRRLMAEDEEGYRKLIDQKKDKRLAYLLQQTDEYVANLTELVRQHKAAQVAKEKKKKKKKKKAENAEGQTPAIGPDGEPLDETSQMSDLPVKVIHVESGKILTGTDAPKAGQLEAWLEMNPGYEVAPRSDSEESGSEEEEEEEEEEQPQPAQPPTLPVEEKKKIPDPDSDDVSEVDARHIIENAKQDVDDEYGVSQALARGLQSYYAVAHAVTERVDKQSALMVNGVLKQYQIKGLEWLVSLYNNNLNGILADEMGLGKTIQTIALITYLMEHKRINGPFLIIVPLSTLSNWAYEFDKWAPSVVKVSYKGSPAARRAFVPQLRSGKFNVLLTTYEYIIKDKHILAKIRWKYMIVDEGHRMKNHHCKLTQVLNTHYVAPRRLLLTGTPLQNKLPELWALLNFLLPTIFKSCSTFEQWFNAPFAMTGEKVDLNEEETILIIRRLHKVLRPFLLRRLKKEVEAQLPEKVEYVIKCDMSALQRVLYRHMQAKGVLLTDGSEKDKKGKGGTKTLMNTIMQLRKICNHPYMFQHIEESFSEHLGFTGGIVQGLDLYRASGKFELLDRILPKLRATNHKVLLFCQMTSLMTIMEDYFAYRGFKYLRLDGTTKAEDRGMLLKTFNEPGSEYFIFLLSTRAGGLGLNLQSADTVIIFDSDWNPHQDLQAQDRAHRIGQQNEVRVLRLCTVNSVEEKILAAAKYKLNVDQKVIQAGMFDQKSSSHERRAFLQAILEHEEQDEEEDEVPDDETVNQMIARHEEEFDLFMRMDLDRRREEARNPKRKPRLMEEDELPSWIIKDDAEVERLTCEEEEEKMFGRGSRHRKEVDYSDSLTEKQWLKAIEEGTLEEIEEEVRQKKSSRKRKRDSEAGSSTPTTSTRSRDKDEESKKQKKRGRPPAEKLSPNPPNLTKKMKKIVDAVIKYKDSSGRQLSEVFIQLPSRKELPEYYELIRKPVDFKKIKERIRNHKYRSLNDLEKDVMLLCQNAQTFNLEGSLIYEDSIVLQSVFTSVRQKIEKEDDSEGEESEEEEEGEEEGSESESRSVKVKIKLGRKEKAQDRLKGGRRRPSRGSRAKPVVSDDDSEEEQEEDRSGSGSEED
UniProt Q9WTL8: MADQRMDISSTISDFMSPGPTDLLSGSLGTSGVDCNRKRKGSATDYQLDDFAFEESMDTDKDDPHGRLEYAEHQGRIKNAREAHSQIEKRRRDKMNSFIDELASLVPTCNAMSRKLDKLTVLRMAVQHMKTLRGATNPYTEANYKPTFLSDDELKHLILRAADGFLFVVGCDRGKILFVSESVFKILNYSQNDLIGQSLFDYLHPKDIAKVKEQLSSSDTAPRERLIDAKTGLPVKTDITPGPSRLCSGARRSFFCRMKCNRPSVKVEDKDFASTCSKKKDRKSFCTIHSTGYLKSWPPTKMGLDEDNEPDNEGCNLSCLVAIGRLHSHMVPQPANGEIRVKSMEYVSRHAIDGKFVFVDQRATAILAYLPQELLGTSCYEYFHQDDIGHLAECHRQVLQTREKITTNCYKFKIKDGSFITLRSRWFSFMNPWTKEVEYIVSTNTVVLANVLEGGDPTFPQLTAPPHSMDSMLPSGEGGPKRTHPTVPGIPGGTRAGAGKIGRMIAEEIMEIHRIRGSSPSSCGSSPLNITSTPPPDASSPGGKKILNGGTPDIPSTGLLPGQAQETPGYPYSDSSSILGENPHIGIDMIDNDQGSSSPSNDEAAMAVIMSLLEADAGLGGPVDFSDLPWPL
UniProt E9Q4N7: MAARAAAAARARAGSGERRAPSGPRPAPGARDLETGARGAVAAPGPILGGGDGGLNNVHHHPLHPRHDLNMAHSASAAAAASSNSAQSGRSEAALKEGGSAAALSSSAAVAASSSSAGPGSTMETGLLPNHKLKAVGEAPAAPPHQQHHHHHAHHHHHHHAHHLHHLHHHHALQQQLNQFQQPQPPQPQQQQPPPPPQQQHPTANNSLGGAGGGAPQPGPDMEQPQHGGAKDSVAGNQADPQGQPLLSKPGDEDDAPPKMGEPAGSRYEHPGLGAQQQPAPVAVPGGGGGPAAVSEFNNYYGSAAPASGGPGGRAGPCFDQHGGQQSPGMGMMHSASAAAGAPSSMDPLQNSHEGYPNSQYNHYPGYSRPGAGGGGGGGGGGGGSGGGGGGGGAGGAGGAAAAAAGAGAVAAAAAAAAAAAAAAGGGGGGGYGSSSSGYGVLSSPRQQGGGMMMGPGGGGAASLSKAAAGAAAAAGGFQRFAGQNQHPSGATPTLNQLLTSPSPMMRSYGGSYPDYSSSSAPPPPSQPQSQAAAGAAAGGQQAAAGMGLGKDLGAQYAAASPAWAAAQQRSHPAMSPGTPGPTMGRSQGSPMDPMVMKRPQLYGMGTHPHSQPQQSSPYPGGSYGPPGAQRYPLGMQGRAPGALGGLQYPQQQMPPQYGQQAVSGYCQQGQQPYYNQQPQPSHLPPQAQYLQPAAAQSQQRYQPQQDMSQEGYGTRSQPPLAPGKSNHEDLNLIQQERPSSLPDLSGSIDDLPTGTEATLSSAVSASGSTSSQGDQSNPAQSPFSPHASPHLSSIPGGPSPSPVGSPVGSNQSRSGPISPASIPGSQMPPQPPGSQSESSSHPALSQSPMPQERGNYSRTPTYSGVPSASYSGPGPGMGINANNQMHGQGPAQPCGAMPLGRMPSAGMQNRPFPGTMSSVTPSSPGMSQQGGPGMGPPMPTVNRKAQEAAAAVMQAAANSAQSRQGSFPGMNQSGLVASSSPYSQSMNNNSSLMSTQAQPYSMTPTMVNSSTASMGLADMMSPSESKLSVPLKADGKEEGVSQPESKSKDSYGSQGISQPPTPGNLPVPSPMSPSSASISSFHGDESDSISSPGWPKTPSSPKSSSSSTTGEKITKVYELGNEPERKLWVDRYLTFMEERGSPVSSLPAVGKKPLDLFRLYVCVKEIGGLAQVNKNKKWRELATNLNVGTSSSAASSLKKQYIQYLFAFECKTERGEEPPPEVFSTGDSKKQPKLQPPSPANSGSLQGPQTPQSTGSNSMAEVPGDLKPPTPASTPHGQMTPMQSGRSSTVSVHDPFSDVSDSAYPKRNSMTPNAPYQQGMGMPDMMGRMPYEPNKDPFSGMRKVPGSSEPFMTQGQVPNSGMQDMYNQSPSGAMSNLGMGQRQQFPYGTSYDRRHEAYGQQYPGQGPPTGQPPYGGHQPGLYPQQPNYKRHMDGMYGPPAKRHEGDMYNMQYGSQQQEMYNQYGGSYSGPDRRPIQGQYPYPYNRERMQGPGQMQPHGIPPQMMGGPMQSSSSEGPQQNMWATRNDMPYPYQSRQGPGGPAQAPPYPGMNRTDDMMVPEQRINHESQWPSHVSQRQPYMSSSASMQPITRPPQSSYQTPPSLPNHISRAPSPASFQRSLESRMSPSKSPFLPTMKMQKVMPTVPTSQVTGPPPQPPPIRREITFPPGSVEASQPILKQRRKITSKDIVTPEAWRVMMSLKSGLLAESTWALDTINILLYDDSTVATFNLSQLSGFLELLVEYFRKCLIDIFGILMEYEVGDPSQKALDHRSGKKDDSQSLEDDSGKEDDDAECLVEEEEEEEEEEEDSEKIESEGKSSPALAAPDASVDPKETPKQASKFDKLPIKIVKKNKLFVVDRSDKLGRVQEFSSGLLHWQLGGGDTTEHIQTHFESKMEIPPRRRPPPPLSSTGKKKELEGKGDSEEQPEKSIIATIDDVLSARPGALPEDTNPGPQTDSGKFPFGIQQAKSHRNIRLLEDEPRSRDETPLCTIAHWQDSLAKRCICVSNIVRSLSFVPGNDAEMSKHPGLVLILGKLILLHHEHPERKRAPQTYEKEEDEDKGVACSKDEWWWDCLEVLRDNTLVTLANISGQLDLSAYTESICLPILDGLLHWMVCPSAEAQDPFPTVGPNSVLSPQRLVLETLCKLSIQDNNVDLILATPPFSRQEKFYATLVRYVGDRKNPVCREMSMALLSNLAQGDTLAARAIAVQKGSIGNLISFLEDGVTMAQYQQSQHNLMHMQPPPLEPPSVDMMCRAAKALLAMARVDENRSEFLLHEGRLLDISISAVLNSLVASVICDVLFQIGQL

Key:
[1] = biological target: PBRM1 (mouse (endogenous in liver)) (UniProt Q8BSQ9); test: co-IP; native PBRM1 IP from MNase-digested liver nuclear extract of FH-H3.3A;PerKO mice; immunoblots
[2] = biological target: BRG1 (mouse (endogenous in liver)) (UniProt Q3TKT4); test: co-IP; native BRG1 IP from MNase-digested liver nuclear extract of FH-H3.3A mice at CT8 and CT20; IgG as negative control; immunoblots
[3] = biological target: BRG1 (mouse (endogenous in liver)) (UniProt Q3TKT4); test: co-IP; native BRG1 IP from MNase-digested liver nuclear extract of FH-H3.3A;PerKO mice; immunoblots
[4] = biological target: BRM (mouse (endogenous in liver)) (UniProt Q6DIC0); test: co-IP; native BRM IP from MNase-digested liver nuclear extract of FH-H3.3A mice at CT8 and CT20 and of FH-H3.3A;PerKO mice; IgG as negative control; immunoblots
[5] = biological target: PBRM1 (mouse (endogenous in liver)) (UniProt Q8BSQ9); test: co-IP; native PBRM1 IP from MNase-digested liver nuclear extract, livers collected at night (CT20); immunoblots
[6] = biological target: PBRM1 (mouse (endogenous in liver)) (UniProt Q8BSQ9); test: co-IP; native PBRM1 IP from MNase-digested liver nuclear extract of wild-type (CT0-CT20) or FH-H3.3A (CT8, CT20) mice; isotype-matched IgG as negative control; immunoblots

Substance	binding [1]	binding [2]	binding [3]	binding [4]	binding [5]	binding [6]
BMAL1 (from UniProt Q9WTL8 1-632)	no binding (condition: in Per1-/-;Per2-/- (PerKO) livers)	binds	binds weakly	binds	no binding (condition: at night (CT20))	binds
ARID1B (from UniProt E9Q4N7 1-2306)	–	binds	–	binds	–	–
BRG1 (from UniProt Q3TKT4 1-1613)	–	–	–	–	–	binds
ARID2 (from UniProt E9Q7E2 1-1828)	–	–	–	–	–	binds
